According to a collection of fitness landscapes (doi:10.1126/science.1257360):
The other results are listed elsewhere or left out.

B1: PhoQ; a variant is named by its letters at X, in order, P23837 (parent)
chain: MKKLLRLFFPLSLRVRFLLATAAVVLVLSLAYGMVALIGYSVSFDKTTFRLLRGESNLFYTLAKWENNKLHVELPENIDKQSPTMTLIYDENGQLLWAQRDVPWLMKMIQPDWLKSNGFHEIEADVNDTSLLLSGDHSIQQQLQEVREDDDDAEMTHSVAVNVYPATSRMPKLTIVVVDTIPVELKSSYMVWSWFIYVLSANLLLVIPLLWVAAWWSLRPIEALAKEVRELEEHNRELLNPATTRELTSLVRNLNRLLKSERERYDKYRTTLTDLTHSLKTPLXXLQXXLRSLRSEKMSVSDAEPVMLEQISRISQQIGYYLHRASMRGGTLLSRELHPVAPLLDNLTSALNKVYQRKGVNISLDISPEISFVGEQNDFVEVMGNVLDNACKYCLEFVEISARQTDEHLYIVVEDDGPGIPLSKREVIFDRGQRVDTLRPGQGVGLAVAREITEQYEGKIVAGESMLGGARMEVIFGRQHSAPKDE

Variants of: B1
Experiment: enrichment ratio after two sorts for PhoP signalling (ratio (wild type AVST 3.29)); higher = more functional
Settings: with PhoP (E. coli)

| Variant | enrichment ratio |
| --- | --- |
| DCAE | ≤ 0.25 |
| PPWH | ≤ 0.25 |
| YVFL | ≤ 0.25 |
| VYMV | ≤ 0.25 |
| MEHA | ≤ 0.25 |
| VWWS | ≤ 0.25 |
| NQTT | ≤ 0.25 |
| YGFG | ≤ 0.25 |
| AKAN | ≤ 0.25 |
| QQDM | ≤ 0.25 |
| NWPI | ≤ 0.25 |
| SPML | ≤ 0.25 |
| LRAP | ≤ 0.25 |
| YARK | ≤ 0.25 |
| PWWC | ≤ 0.25 |
| WPGQ | ≤ 0.25 |
| NNPP | ≤ 0.25 |
| YLWG | ≤ 0.25 |
| VDWV | ≤ 0.25 |
| SWND | ≤ 0.25 |
| WKDK | ≤ 0.25 |
| HKGW | ≤ 0.25 |
| RSTD | ≤ 0.25 |
| ICPV | ≤ 0.25 |
| QLSH | 0.719 |
| NGYA | ≤ 0.25 |

| Variant | enrichment ratio |
| --- | --- |
| GPDN | ≤ 0.25 |
| GRQA | ≤ 0.25 |
| YRWV | ≤ 0.25 |
| IPIF | ≤ 0.25 |
| GTYN | ≤ 0.25 |
| TFMM | ≤ 0.25 |
| EDHR | ≤ 0.25 |
| WDKH | ≤ 0.25 |
| MLNL | ≤ 0.25 |
| LIYE | ≤ 0.25 |
| VKQW | ≤ 0.25 |
| YHNC | ≤ 0.25 |
| FIWY | ≤ 0.25 |
| NSQH | ≤ 0.25 |
| SPLY | ≤ 0.25 |
| LKWW | ≤ 0.25 |
| VEPF | ≤ 0.25 |
| CSLV | ≤ 0.25 |
| DMPY | ≤ 0.25 |
| VGYK | ≤ 0.25 |
| LPIG | ≤ 0.25 |
| GFSA | ≤ 0.25 |
| SWLT | ≤ 0.25 |
| NGYL | ≤ 0.25 |
| TKCS | 13.2 |
| LGET | ≤ 0.25 |

| Variant | enrichment ratio |
| --- | --- |
| MCGN | 16.3 |
| WKAN | ≤ 0.25 |
| NSNV | ≤ 0.25 |
| TWKH | ≤ 0.25 |
| FAWK | ≤ 0.25 |
| MHTA | ≤ 0.25 |
| PEVP | ≤ 0.25 |
| RIKM | 1.57 |
| LCAP | ≤ 0.25 |
| ASVL | 16.7 |
| GCTM | 1.21 |
| LMVY | ≤ 0.25 |
| ISCR | ≤ 0.25 |
| YKGM | ≤ 0.25 |
| DQRV | ≤ 0.25 |
| GGVA | ≤ 0.25 |
| EVTY | ≤ 0.25 |
| ARRV | ≤ 0.25 |
| CGSN | ≤ 0.25 |
| RLIF | ≤ 0.25 |
| KIRT | ≤ 0.25 |
| CQFF | ≤ 0.25 |
| WQII | ≤ 0.25 |
| YWLG | ≤ 0.25 |
| GDTE | ≤ 0.25 |
| GQVV | ≤ 0.25 |

| Variant | enrichment ratio |
| --- | --- |
| TSSY | 14.6 |
| PCDG | ≤ 0.25 |
| WYPM | ≤ 0.25 |
| MYFV | ≤ 0.25 |
| VEMT | ≤ 0.25 |
| NKAN | ≤ 0.25 |
| RVEW | ≤ 0.25 |
| TCQY | 31.4 |
| TTRY | ≤ 0.25 |
| LIED | ≤ 0.25 |
| FLDR | ≤ 0.25 |
| GFWS | ≤ 0.25 |
| NFQP | ≤ 0.25 |
| RHWA | ≤ 0.25 |
| DWYF | ≤ 0.25 |
| LMFV | ≤ 0.25 |
| IQFK | ≤ 0.25 |
| SLRT | ≤ 0.25 |
| HWFT | ≤ 0.25 |
| LNDQ | ≤ 0.25 |
| PKWD | ≤ 0.25 |
| GDFH | ≤ 0.25 |
| WPPK | ≤ 0.25 |
| NWSI | ≤ 0.25 |
| NCTY | ≤ 0.25 |
| DTDQ | ≤ 0.25 |

| Variant | enrichment ratio |
| --- | --- |
| LDTM | ≤ 0.25 |
| WRGY | ≤ 0.25 |
| GGGS | ≤ 0.25 |
| QRYI | ≤ 0.25 |
| NMEP | ≤ 0.25 |
| ATSH | 10.6 |
| MVGP | ≤ 0.25 |
| GCCM | ≤ 0.25 |
| LQKE | ≤ 0.25 |
| ELPN | ≤ 0.25 |
| GVPV | ≤ 0.25 |
| YSQH | ≤ 0.25 |
| AKTH | 4.03 |
| QMAR | ≤ 0.25 |
| RSQA | ≤ 0.25 |
| NDYA | ≤ 0.25 |
| IYLI | ≤ 0.25 |
| QRQD | ≤ 0.25 |
| KCQD | ≤ 0.25 |
| NFTR | ≤ 0.25 |
| YKMW | ≤ 0.25 |
| IFRN | ≤ 0.25 |
| NVSH | ≤ 0.25 |
| WAHI | ≤ 0.25 |
| WQCR | ≤ 0.25 |
| LLFN | ≤ 0.25 |

| Variant | enrichment ratio |
| --- | --- |
| MFTA | ≤ 0.25 |
| VFEF | ≤ 0.25 |
| DCDG | ≤ 0.25 |
| LYWG | ≤ 0.25 |
| LDVM | ≤ 0.25 |
| LSQA | ≤ 0.25 |
| HWVC | ≤ 0.25 |
| RRKR | ≤ 0.25 |
| SSIN | 6.9 |
| AARS | ≤ 0.25 |
| PYKE | ≤ 0.25 |
| ALFC | ≤ 0.25 |
| VQGY | ≤ 0.25 |
| SWYS | ≤ 0.25 |
| HMPF | ≤ 0.25 |
| DHTE | ≤ 0.25 |
| WKDI | ≤ 0.25 |
| RDEW | ≤ 0.25 |
| PANE | ≤ 0.25 |
| YQID | ≤ 0.25 |
| PFAW | ≤ 0.25 |
| DIMC | ≤ 0.25 |
| QWRS | ≤ 0.25 |
